The values that follow come from PubChem BioAssay AID463173 (ICCB-Longwood Screening Facility, Harvard Medical School, 2010).

Hit rate of the full screen: of about 52,000 compounds, about 4,300 (8.3%) were called active. No stated cut-off is given here; in the data, active means survival mostly below about 52% (no sharp cut-off); inactive means mostly above about 56%. Some of the results follow.

For the assay, the system named is DeltatarO mutant. As to the kind of experiment: growth inhibition of S. aureus wild type versus tarO mutant, primary screen, teichoic acid synthesis inhibitors, RN4220, OD600 (AID 463173). To be noted: OD600, 18 h, active compounds read low, screened at 18.75 µg/mL (by protocol).
Regarding `O=C(NCC(c1ccc2c(c1)OCO2)N1CCN(c2ccccc2)CC1)C(=O)Nc1ccccc1` (stereo not given), the survival is inactive: 75%.

On to `CC(C)c1ccc(S(=O)(=O)c2nnn3c2nc(NCc2cccs2)c2sccc23)cc1`, for which the survival is inactive: 76%.

For the compound `O=C(OCc1cc(=O)n2nc(C3CC3)sc2n1)c1ccc(NC(=O)c2ccccc2Cl)cc1`, the survival is inactive: 82%.

`Cc1cccc(NC(=O)c2ccc(F)c(S(=O)(=O)NCc3ccc4c(c3)OCO4)c2)c1`: the survival was inactive: 79%.

For `Cc1ccc(C(=O)NCCSc2c[nH]c3ccccc23)cc1C`, the survival was active: 46%.

For `Cc1ccn2c(Nc3ccc4c(c3)OCO4)c(-c3ccc(C)o3)nc2c1`, the survival is inactive: 81%.

Take `Cc1cc(C)cc(NC(=O)CSc2oc(-c3cccs3)nc2S(=O)(=O)c2ccc(Br)cc2)c1`: the survival is inactive: 79%.

In the case of `COC(=O)c1sc2cccc(F)c2c1S(=O)(=O)NC(C)c1ccccc1` (stereo not given), the survival is inactive: 55%.

Consider `CCOC(=O)C1CCN(c2nc3c(S(=O)(=O)c4ccc(CC)cc4)nnn3c3ccc(Cl)cc23)CC1`, for which the survival is inactive: 101%.

Turning to `Cc1cccn2c(=O)c3cc(C(=O)NC(C)(C)C)n(C)c3nc12`, the survival is inactive: 61%.

Take `CC(=O)c1ccc(NC(=O)C2CCCN(S(=O)(=O)c3ccc(Br)s3)C2)cc1` (stereo not given): the survival is inactive: 120%.

Turning to `CCOc1ccc(NC(=O)c2sc3nc4n(c(=O)c3c2C)CCCC4)cc1`, the survival was inactive: 57%.

As to `Cc1cc(Cl)ccc1NC(=O)CS(=O)(=O)c1cccc2nsnc12`, the survival is inactive: 125%.

Turning to `O=C(NC(=S)NCc1ccccc1)c1ccco1`, the survival is inactive: 71%.

For the compound `CCSc1ncc(Cl)c(C(=O)Nc2ccc(S(=O)(=O)N3CCCCC3CC)cc2)n1` (stereo not given), the survival was inactive: 82%.

As to `CCOc1ccc(NC(c2ccc(Cl)cc2)c2nnc(-c3cccc(F)c3)o2)cc1` (stereo not given), the survival was inactive: 90%.

For the compound `Cc1ccc(CN(C(=O)COc2cccc(Cl)c2)c2ccccn2)o1`, the survival is inactive: 67%.

Turning to `O=C1O/C(=C/C(=O)N2CCOCC2)c2ccccc21`, the survival is inactive: 97%.

For the compound `COc1cc(O)ccc1-c1nc2ccc(Br)cn2c1Nc1ccccc1C`, the survival was active: 46%.

For the compound `CCCNC(=O)c1cccc(C)c1`, the survival is inactive: 58%.

As to `O=C(Nc1ccccc1F)C(c1ccccc1)N1Cc2ccccc2C1=O` (stereo not given), the survival was inactive: 72%.

In the case of `O=C(CSc1nccn1Cc1ccc(F)cc1)NC1CCCC1`, the survival is inactive: 98%.

`COc1ccc(NC(=O)C2(S(=O)(=O)c3ccc(C)cc3)CC2)c(OC)c1`: the survival was inactive: 96%.

As to `CCOC(=O)C1CCN(C(=O)c2ccc3c(=O)n4nc(Nc5ccccc5)sc4nc3c2)CC1`, the survival was inactive: 117%.

`COc1ccc(-c2c(C)c3ccc(O)c(CN4CCCCC4C)c3oc2=O)cc1OC` (stereo not given): the survival is inactive: 71%.
